Experimental data: the supplement of paper PMC7580552
Where a name gives a salt, the structure may show the parent alone. ± gives the standard deviation of the averaged measurements. This is one part of the list. Many values rest on one well or one pass, so single values are uncertain.

Test system: Escherichia coli W3110
Test: planktonic growth (OD600) relative to untreated control; higher = more growth
Details: 10 µM; 20-24 h; 30 °C; TB
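Also: stationary (unshaken) cultures in 96-well plates, started at OD600 0.05 from mid-exponential cells, with compounds supplied from DMSO stocks.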

| Compound | planktonic growth [%] |
| --- | --- |
| CC(C)(C)NC(=O)[C@@H]1CN(Cc2cccnc2)CCN1C[C@@H](O)C[C@@H](Cc1ccccc1)C(=O)N[C@H]1c2ccccc2C[C@H]1O [Indinavir sulfate] | 91 |
| O=C(O[C@@H]1C[C@@H]2C[C@H]3C[C@H](C1)N2CC3=O)c1c[nH]c2ccccc12 [Dolasetron mesilate] | 103 |
| CN(C)CCC(c1ccccc1)c1ccccn1 (stereo unspecified) [Pheniramine maleate] | 100 |
| Cc1c(O)cccc1C(=O)N[C@@H](CSc1ccccc1)[C@H](O)CN1C[C@H]2CCCC[C@H]2C[C@H]1C(=O)NC(C)(C)C [Nelfinavir mesylate] | 117 |
| CCSc1ccc2c(c1)N(CCCN1CCN(C)CC1)c1ccccc1S2 [Thiethylperazine dimalate] | 108 |
| O=C(O)c1cc(=O)c2c(OCC(O)COc3cccc4oc(C(=O)O)cc(=O)c34)cccc2o1 [Cromolyn disodium salt] | 92 |
| CCCCOc1ccc(CC(=O)NO)cc1 [Bufexamac] | 102 |
| CC(=O)OC(C)C[N+](C)(C)C (stereo unspecified) [Methacholine chloride] | 95 |
| NC[C@H]1CC[C@H](C(=O)O)CC1 [Tranexamic acid] | 100 |
| C=CCc1ccccc1OCC(O)CNC(C)C (stereo unspecified) [Alprenolol hydrochloride] | 113 |
| Cc1ccc(O)c([C@H](CCN(C(C)C)C(C)C)c2ccccc2)c1 [Tolterodine tartrate] | 93 |
| CCCC(C(=O)OCCN(CC)CC)(c1ccccc1)c1ccccc1 [Proadifen hydrochloride] | 90 |
| C=CC[N@@+]12CC[C@@]34c5ccccc5N5/C=C6/[C@H]7C[C@H]8[C@@]9(CC[N@@+]8(CC=C)C/C7=C/CO)c7ccccc7N(/C=C(/[C@@H](C[C@@H]31)/C(=C\CO)C2)[C@H]54)[C@@H]69 [Alcuronium chloride] | 95 |
| Clc1ccc(COC(Cn2ccnc2)c2ccc(Cl)cc2Cl)cc1 (stereo unspecified) [Econazole nitrate] | 83 |
| CO/N=C1\CN(c2nc3c(cc2F)c(=O)c(C(=O)O)cn3C2CC2)CC1CN (stereo unspecified) [Gemifloxacin mesylate] | 25 |
| Clc1ccccc1C(c1ccccc1)(c1ccccc1)n1ccnc1 [Clotrimazole] | 98 |
| CCN(CCCc1ccccc1)CCCc1ccccc1 [Alverine citrate salt] | 91 |
| CCN(CC)C(=O)N1CCN(C)CC1 [Diethylcarbamazine citrate] | 99 |
| O=P(O)(O)C(O)(Cc1cccnc1)P(=O)(O)O [Risedronic acid monohydrate] | 94 |
| CC(C)(Oc1ccc(C2CC2(Cl)Cl)cc1)C(=O)O (stereo unspecified) [Ciprofibrate] | 93 |
| C=CCN1CCCC1CNC(=O)c1cc2nn[nH]c2cc1OC (stereo unspecified) [Alizapride hydrochloride] | 95 |
| CC1=C(C(=O)O)N2C(=O)[C@@H](NC(=O)[C@H](N)c3ccc(O)cc3)[C@H]2SC1 [Cefadroxil] | 97 |
| CNC1(C)C2CCC(C2)C1(C)C (stereo unspecified) [Mecamylamine hydrochloride] | 65.5 ± 59 |

| Compound | planktonic growth [%] |
| --- | --- |
| Cn1c(=O)c2c(ncn2CC(O)CO)n(C)c1=O (stereo unspecified) [Diprophylline] | 95 |
| NC(=O)c1cccnc1 [Nicotinamide] | 109 |
| CC(=C(CCO)SSCC1CCCO1)N(C=O)Cc1cnc(C)nc1N (stereo in doubt) [Fursultiamine Hydrochloride] | 97 |
| CCC(C)(CN(C)C)OC(=O)c1ccccc1 (stereo unspecified) [Amyleine hydrochloride] | 109 |
| C=C(NC(=O)C(=C)NC(=O)c1csc(C2=N[C@@H]3c4csc(n4)[C@H]4NC(=O)c5csc(n5)[C@H]([C@](C)(O)[C@@H](C)O)NC(=O)[C@H]5CSC(=N5)/C(=C/C)NC(=O)[C@H]([C@@H](C)O)NC(=O)c5csc(n5)[C@]3(CC2)NC(=O)[C@H](C)NC(=O)C(=C)NC(=O)[C@H](C)NC(=O)[C@H]([C@@H](C)CC)N[C@@H]2C=Cc3c([C@H](C)O)cc(nc3[C@H]2O)C(=O)O[C@@H]4C)n1)C(N)=O [Thiostrepton] | 115 |
| CC[C@]12CCCN3CCc4c(n(c5ccccc45)[C@@](O)(C(=O)OC)C1)[C@@H]32 [Vincamine] | 92 |
| CCC(C)(C)c1ccc(CC(C)CN2C[C@@H](C)O[C@@H](C)C2)cc1 (stereo partly specified) [Amorolfine hydrochloride] | 116 |
| CCOC(=O)c1ccc(C#Cc2ccc3c(c2)C(C)(C)CCS3)nc1 [Tazarotene] | 102 |
| CC(CCc1ccc(O)cc1)NCCc1ccc(O)c(O)c1 (stereo unspecified) [Dobutamine hydrochloride] | 102 |
| CNCC[C@@H](Oc1cccc2ccccc12)c1cccs1 [(R)-Duloxetine hydrochloride] | 97 |
| Nc1ccc(S(N)(=O)=O)cc1 [Sulfanilamide] | 100 |
| C#CC1(O)CC[C@H]2[C@@H]3CCC4=CC(=O)CC[C@@H]4[C@H]3CC[C@@]21CC (stereo partly drawn) [Norgestrel-(-)] | 93 |
| Clc1cc(Cl)c(OCC#CI)cc1Cl [Haloprogin] | 88 |
| Nc1nc(=O)[nH]cc1F [Flucytosine] | 89 |
| Nc1nnc(-c2cccc(Cl)c2Cl)c(N)n1 [Lamotrigine] | 78 |
| CC[C@@]1(O)C(=O)OCc2c1cc1n(c2=O)Cc2cc3c(CN(C)C)c(O)ccc3nc2-1 [Topotecan] | 99 |
| CC(=O)O[C@]1(C(C)=O)CC[C@H]2[C@@H]3C=C(C)C4=CC(=O)CC[C@]4(C)[C@H]3CC[C@@]21C [Megestrol acetate] | 100 |
| Cc1cccc(C)c1NC(=O)CN1CCN(CCCC(c2ccc(F)cc2)c2ccc(F)cc2)CC1 [Lidoflazine] | 103 |
| COc1ccc2c(c1)c(CC(=O)OCC(=O)O)c(C)n2C(=O)c1ccc(Cl)cc1 [Acemetacin] | 87 |
| Cc1nccn1CC1CCc2c(c3ccccc3n2C)C1=O (stereo unspecified) [Ondansetron Hydrochloride] | 93 |
| CC(=O)NC[C@H]1CN(c2ccc(N3CCOCC3)c(F)c2)C(=O)O1 [Linezolid] | 89 |
| CC(C)(C)NCC(O)COc1cccc2c1CC(O)C(O)C2 (stereo unspecified) [Nadolol] | 94 |
| Cc1cccn2c(=O)c(-c3nnn[nH]3)cnc12 [Pemirolast potassium] | 92 |
